Reference: PubChem BioAssay AID588342 (National Center for Advancing Translational Sciences (NCATS), 2011)
About 25,000 (6.9%) of roughly 360,000 compounds were called active. This list was built around the results that the source calls inconclusive (neither active nor inactive); the mix of calls is not that of the screen. The call rests on the fitted dose curve; in most records, active means well fitted inhibition curve with a large enough effect; inconclusive means small, poorly fitted or top-dose-only effect; inactive means flat fitted curve, though single readings scatter. Potencies beside an inconclusive call are fits to weak or partial responses and may not hold up.

target: Luciferin 4-monooxygenase (Photinus pyralis) (UniProt P08659); assay: qHTS profiling assay for firefly luciferase inhibitor/activator using purifed enzyme and Km concentrations of substrates (counterscreen for miR-21 project); settings: purified FLuc, luminescence inhibition; series mostly up to 57.5 µM; further: nearly all actives have a fitted effect of over 55% in size
Sequence of UniProt P08659 (P08659 whole entry, looked up): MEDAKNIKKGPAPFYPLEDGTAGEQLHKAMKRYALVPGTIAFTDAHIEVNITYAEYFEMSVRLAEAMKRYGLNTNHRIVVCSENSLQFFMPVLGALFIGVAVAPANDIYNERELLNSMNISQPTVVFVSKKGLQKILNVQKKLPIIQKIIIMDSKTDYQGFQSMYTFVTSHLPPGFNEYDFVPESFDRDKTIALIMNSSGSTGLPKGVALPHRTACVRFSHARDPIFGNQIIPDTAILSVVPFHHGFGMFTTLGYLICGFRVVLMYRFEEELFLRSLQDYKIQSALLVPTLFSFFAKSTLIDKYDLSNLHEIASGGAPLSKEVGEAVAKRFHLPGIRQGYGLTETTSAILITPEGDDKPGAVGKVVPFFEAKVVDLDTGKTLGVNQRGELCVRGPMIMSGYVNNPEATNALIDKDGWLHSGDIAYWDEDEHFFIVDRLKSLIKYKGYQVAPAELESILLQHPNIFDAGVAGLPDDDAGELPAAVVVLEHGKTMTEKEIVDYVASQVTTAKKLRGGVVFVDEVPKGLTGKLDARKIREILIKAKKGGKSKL
Summary of the method: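 Biochemical qHTS of compounds, final roughly 60 µM downward over six points, against 10 nM purified firefly luciferase using Km concentrations of substrates (10 uM D-luciferin, 10 uM ATP) in Tris acetate pH 7.5 buffer; luminescence output.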
Potency means the concentration at half of the fitted maximal effect; tags describe the fitted curve by direction and shape.

Compound | Potency
O=c1c(O)cccc2cc(O)c(O)c(O)c12 | inconclusive: 37.9 µM [inhibitor, partial curve, poor fit]
Clc1ccccc1Cn1c(/C=C/c2ccco2)nc2ccccc21 | active: 10.7 µM
Cc1nn2c(N)c(C#N)cnc2c1-c1ccccc1 | inconclusive: 13.5 µM [inhibitor, partial curve]
O=C(O)CCCNc1cc(N2CCN(C(=O)c3ccco3)CC2)c2noc3c2c1C(=O)c1ccccc1-3 | inconclusive: 23.9 µM [inhibitor, partial curve]
O=C(NCc1ccc2c(c1)OCO2)Oc1ccccc1 | inconclusive: 26.9 µM [inhibitor, single point]
Cc1cccc(NC(=O)N(Cc2cc3cc(C)ccc3[nH]c2=O)CC2COCCO2)c1 (centres undefined) | inactive
O=C(NCC1CCCO1)C(=O)N/N=C/c1ccccc1C(=O)O (centres undefined) | inconclusive: 23.9 µM [inhibitor, partial curve, poor fit]
Cc1ccc(NC(=O)C2C(C(=O)O)C3C=CC2C32CC2)cc1 (centres undefined) | inconclusive: 37.9 µM [inhibitor, single point]
CCCOc1cccc(C(=O)Nc2cc(NC(=O)c3ccco3)ccc2OC)c1 | inconclusive: 21.3 µM [inhibitor, single point]
CC(=O)Nc1ccc(C(=O)COC(=O)c2c(C)noc2C)c(F)c1 | inconclusive: 26.9 µM [inhibitor, partial curve, poor fit]
O=c1[nH]c2ccccc2n1CCC1CCCCC1 | inconclusive: 37.9 µM [inhibitor, single point]
COc1cc(/C=N/N2CCOCC2)ccc1OCc1ccc(Cl)cc1 | active: 10.7 µM
Cc1cc(C)nc(N/N=C/c2ccco2)n1 | inconclusive: 23.9 µM [inhibitor, single point]
O=C(Oc1ccc(/C=N/NC(=O)c2ccccc2O)cc1)c1ccccc1 | inconclusive: 6.75 µM [inhibitor, partial curve]
COc1ccc(/C=C/C(=O)NC(=S)Nc2ccc(Br)cn2)cc1 | inactive
CCOc1ccc(NC(=O)Nc2ccc(Br)cn2)cc1 | inconclusive: 6.01 µM [inhibitor, partial curve, poor fit]
Cc1csc2nc(COC(=O)c3ccccc3NC(=O)c3ccc(C(C)(C)C)cc3)cc(=O)n12 | active: 2.69 µM
COc1ccc(CC(=O)Nc2ccc(-c3nc4ccccc4s3)c(C)c2)cc1OC | inconclusive: 4.78 µM [inhibitor, partial curve]
O=c1c2cc(Cl)ccc2nc(-c2ccccc2Cl)n1O | inconclusive: 26.9 µM [inhibitor, partial curve, poor fit]
COCCNC(=O)Nc1ccc2nc(-c3ccco3)c(-c3ccco3)nc2c1 | active: 21.3 µM
COc1cc([N+](=O)[O-])ccc1NC(=S)Nn1cnnc1 | inconclusive: 26.9 µM [inhibitor, single point]
Cc1sc(NC(=O)c2cc(-c3ccc(Cl)cc3)nc3ccccc23)c(C(N)=O)c1C | inconclusive: 37.9 µM [inhibitor, partial curve, poor fit]

Compound | Potency
COc1cc(NC(=O)c2csc(N)n2)cc(C(=O)Nc2cccc(C(F)(F)F)c2)c1 | inconclusive: 15.1 µM [inhibitor, partial curve]
COc1ccc2nc(NC(C)=O)sc2c1 | active: 12 µM
Cn1nc(C(=O)NCc2cccs2)c2ccccc2c1=O | inactive
Cc1nc(NC(=O)c2ccccc2)sc1-c1csc(NCCc2ccccc2)n1 | inconclusive: 10.7 µM [inhibitor, partial curve]
OCCN(CCO)c1ncnc2c1cnn2-c1ccc(F)cc1 | inconclusive: 21.3 µM [inhibitor, partial curve, poor fit]
O=C(CCCCl)OCc1cn(-c2ccc(Cl)cc2)nn1 | inconclusive: 23.9 µM [inhibitor, partial curve, poor fit]
CCc1ccc(-c2cc(C(=O)N/N=C/c3ccco3)[nH]n2)cc1 | inconclusive: 2.69 µM [inhibitor, partial curve]
COc1ccc(C2CC(c3ccc(Br)cc3)=NN2C(=O)CN2CCCC2)cc1 (centres undefined) | inactive
COCCSc1nnc(NC(=O)c2ccc3c(c2)OCO3)s1 | inconclusive: 13.5 µM [inhibitor, partial curve]
COc1ccccc1C(=O)Oc1ccc(C(c2c(C)[nH][nH]c2=O)c2c(C)[nH][nH]c2=O)cc1 | inconclusive: 21.3 µM [inhibitor, single point]
COc1cc(NC(=O)CCc2c(C)nn(-c3ccc(N4CCCCC4)nn3)c2C)cc(OC)c1OC | active: 19 µM
CCOC(=O)c1ccc(NC(=O)NCc2ccn(CC)n2)cc1 | inconclusive: 37.9 µM [inhibitor, single point]
O=C(O)C(=O)/C(=C\c1cccc(Cl)c1)c1ccc2ccccc2n1 | inconclusive: 16.9 µM [inhibitor, partial curve]
C=CCNC(=O)COc1ccc(Oc2ccccc2)cc1 | inconclusive: 37.9 µM [inhibitor, partial curve, poor fit]
Cc1cccc(NC(=O)c2ccc3nccnc3c2)n1 | inconclusive: 23.9 µM [inhibitor, single point]
Cc1cc(C)cc(NC(=O)CCCc2nc(-c3ccco3)no2)c1 | inconclusive: 19 µM [inhibitor, partial curve, poor fit]
NC(=O)C1(N2CCCCC2)CCN(Cc2ccccc2Cl)CC1 | inactive
O=C(NC(=S)Nc1ncc(Br)cc1Br)c1ccccc1 | active: 21.3 µM
COc1ccc(OC)c(S(=O)(=O)N2CCC(C(=O)NCc3ccc4c(c3)OCO4)CC2)c1 | inactive
CCc1ccc(Nc2oc(C)cc(=O)c2C(C)=O)cc1 | active: 19 µM
COc1ccc(-c2csc(NC(=O)c3ccc(OCC(=O)N4CCOCC4)c(OC)c3)n2)cc1OC | inconclusive: 8.49 µM [inhibitor, partial curve, poor fit]
O=C(Cc1ccccc1Cl)N/N=C/c1cccnc1 | inactive
